# Source: patent publication US20040018193A1 (priority 2002, published 2004)
# Test system: vaccinia virus
# Format: cell-based
substance,measurement,value
TNF-α,reduction in virus titers,approximately 50%
